Values joined by “and” are separate entries in the source; they are usually repeats but may differ in a detail not shown here. Equal values may be shown once. The campaign covered roughly 2,000 compounds. About 45 (2%) were called active.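 The calls were made as follows: active = inhibition above the mean of all tested compounds plus 3 SD (cut at about 49% in these data); inactive = the rest.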 Some of the results follow.
biological target: Perilipin-5 (Homo sapiens) + 1-acylglycerol-3-phosphate O-acyltransferase ABHD5 (Homo sapiens) (UniProt Q00G26+Q8WTS1); experiment: ABHD5-PLIN5 interaction inhibitors, pilot screen, cell lysate, split luciferase complementation, luminescence, NIH validation set (AID 493035);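 also: 0% = DMSO only wells while the 100% control is not stated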; details: split G. princeps luciferase complementation, lysates, 4 h; at 7.9 µM, stronger effect = higher value
Sequence of UniProt Q00G26 (Q00G26 whole entry, looked up): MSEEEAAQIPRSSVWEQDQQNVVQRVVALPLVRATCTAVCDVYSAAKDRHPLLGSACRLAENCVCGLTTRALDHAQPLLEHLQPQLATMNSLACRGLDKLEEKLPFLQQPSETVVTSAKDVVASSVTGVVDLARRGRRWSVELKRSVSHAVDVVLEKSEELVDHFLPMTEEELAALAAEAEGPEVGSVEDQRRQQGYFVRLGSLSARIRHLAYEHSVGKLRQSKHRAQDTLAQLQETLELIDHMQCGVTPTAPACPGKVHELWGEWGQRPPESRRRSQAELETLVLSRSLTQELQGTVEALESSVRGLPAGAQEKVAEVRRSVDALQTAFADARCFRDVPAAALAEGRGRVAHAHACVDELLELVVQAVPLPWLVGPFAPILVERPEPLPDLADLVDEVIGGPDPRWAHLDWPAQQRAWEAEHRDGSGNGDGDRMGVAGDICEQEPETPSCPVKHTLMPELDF
Sequence of UniProt Q00G26 (Q8WTS1 whole entry, looked up): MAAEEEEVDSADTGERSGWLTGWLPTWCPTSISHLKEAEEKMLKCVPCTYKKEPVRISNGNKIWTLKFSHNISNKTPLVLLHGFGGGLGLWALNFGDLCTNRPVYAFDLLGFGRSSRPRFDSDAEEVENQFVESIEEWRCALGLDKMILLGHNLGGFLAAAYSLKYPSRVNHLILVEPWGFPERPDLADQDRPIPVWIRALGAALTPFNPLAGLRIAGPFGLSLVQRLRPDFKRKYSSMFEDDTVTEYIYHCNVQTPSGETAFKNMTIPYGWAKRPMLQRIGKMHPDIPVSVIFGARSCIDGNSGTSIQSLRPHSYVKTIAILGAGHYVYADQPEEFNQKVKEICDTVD

| SMILES | inhibition |
| --- | --- |
| C=C1C2(C(=O)Nc3ccc(SC(F)F)cc3)CCC(C2)C1(C)C (centres undefined) | inactive: 2.97% |
| O=C1OC(=O)C2C1[C@@H]1CC[C@H]2O1 (some centres undefined) | inactive: 4.31% |
| CCNC(=O)C(Cc1ccccc1)NC(=O)OCc1ccccc1 (centres undefined) | inactive: -5.97% |
| COc1ccc2c(CCNC(=O)c3ccc([N+](=O)[O-])cc3)c[nH]c2c1 | inactive: -25% |
| Cc1cccc(Oc2coc3cc(OC(=O)c4cncc(Br)c4)ccc3c2=O)c1 | inactive: 7.68% |
| COc1ccc2c(c1)CC[C@@H]1[C@@H]2CC[C@]2(C)C(=O)CC[C@@H]12 | inactive: -11.5% |
| OC(CCN1CCCCC1)(c1ccccc1)C1CCCCC1 (centres undefined) | inactive: -8.85% |
| Cc1ccc2nc3c(cc(C(=O)NCC4CCCO4)c(=N)n3CCCOC(C)C)c(=O)n2c1 (centres undefined) | inactive: 8.06% |
| Cc1coc2c1c(C)cc1oc(=O)c(Cc3ccccc3)c(C)c12 | inactive: 0.1% |
| Cc1cc(C)c2c(CCl)cc(=O)oc2c1 | inactive: 7.39% |
| COc1cc(C2Nc3ccccc3NC3=C2C(=O)CC(c2ccc(OC)c(OC)c2)C3)ccc1O (centres undefined) | inactive: 1.84% |
| CCOC(=O)C(=Cc1ccccc1OC)C(=O)OCC | active: 47.9% |
| Cc1ccccc1-c1coc2cc(O)ccc2c1=O | inactive: 4.3% |
| COc1ccc(C(=O)Nc2ccc(OC)c([N+](=O)[O-])c2)cc1Br | inactive: 3.5% |
| Fc1ccccc1CNCCC(Cc1ccccc1)c1ccc2c(c1)OCO2 (centres undefined) | inactive: -17.1% |
| CCC1CCc2c(sc(NC(=O)c3cccnc3)c2C(N)=O)C1 (centres undefined) | inactive: -3.42% |
| Cn1c([N+](=O)[O-])cnc1COC(N)=O | inactive: -14.5% |
| COc1cc(C(=O)CCN2CCC(c3ccccc3)C2)cc(OC)c1OC (centres undefined) | inactive: 13.3% |
| CCCCNC(=O)NS(=O)(=O)c1ccc(C)cc1 | inactive: -4.64% |
| CC(=O)[C@H]1CC[C@H]2[C@@H]3C[C@H](C)C4=CC(=O)CC[C@]4(C)[C@H]3[C@@H](O)C[C@]12C | inactive: 5.21% |
| CC(C)CC1c2[nH]c3ccccc3c2CCN1C(=O)CCC(=O)N(C)C (centres undefined) | inactive: -11.6% |
| CC(=O)N1c2ccccc2C(C)=CC1(C)C | inactive: -3.26% |

| SMILES | inhibition |
| --- | --- |
| CCOCc1cc(C)[nH]c(=O)c1C#N | inactive: 5.69% |
| O=C(CCC(=O)c1cccs1)c1cccs1 | inactive: -5.93% |
| O=C1c2ccccc2C2(c3ccccc3)NCCN12 (centres undefined) | inactive: 0.12% |
| Cc1nnc(SCC(=O)N2CCCC(C(=O)c3ccc(Cl)cc3)C2)o1 (centres undefined) | inactive: 0.98% |
| CC(=O)Nc1cc(O)cc(O)c1 | inactive: -11.9% |
| Cc1ccc(C(=O)NCCNC(=O)c2ccccc2)cc1 | inactive: -6.77% |
| CNCCC(Oc1ccc(C(F)(F)F)cc1)c1ccccc1 (centres undefined) | inactive: -11.3% |
| COc1ccc2nc(NC(=O)Nc3ccccc3)sc2c1 | inactive: -9.65% |
| COC(=O)c1cc(OC)c(OC)c(OC)c1[N+](=O)[O-] | inactive: 7.79% |
| C[C@]12CC[C@@H]3c4cc(O)c(O)cc4CC[C@H]3[C@@H]1CC[C@@H]2O | inactive: 12.8% |
| COc1cccc2c(O)cc(=O)n(C)c12 | inactive: -4.25% |
| CCCCOc1cc(C(=O)NCCN(CC)CC)c2ccccc2n1 | inactive: -15.8% and inactive: -6.74% |
| COc1cccc(CC2CC(=O)N(c3ccc4c(C)cc(=O)oc4c3)C2=O)c1 (centres undefined) | inactive: -4.81% |
| CCS(=O)(=O)CCn1c([N+](=O)[O-])cnc1C | inactive: -6.22% |
| O=C1CCc2cc(OCCCCc3nnnn3C3CCCCC3)ccc2N1 | inactive: 2.52% |
| C(=C\c1ccc2ccccc2n1)/c1ccccc1 | inactive: 3.52% |
| c1cc(-c2ccncc2)ccn1 | inactive: -3.86% |
| Cc1csc(CCc2nc(C)cs2)n1 | inactive: -0.75% |
| O=C(Oc1ccc2c3c(c(=O)oc2c1)CCCC3)c1ccco1 | inactive: -2.62% |
| COc1ccc(-c2c(C)c3ccc(OCC(C)=O)cc3oc2=O)cc1 | inactive: 1.83% |
| CN1CC2CCCC3(C1)C(=O)NC1(CCCCC1)N=C23 (centres undefined) | inactive: -2.89% |
| COc1ccc(-c2cc(C(=O)N3CCOCC3)c3cc(C)ccc3n2)cc1 | inactive: -3.27% |

| SMILES | inhibition |
| --- | --- |
| O=C(/C=C/c1ccc2c(c1)OCO2)NCc1ccc(F)cc1 | inactive: 1.71% |
| Cc1ccc2c(c1)C(C)(C)[C@]1(C)NC(=O)CCN21 | inactive: 5.4% |
| CC(=O)OC1c2c(ccc3ccc(=O)oc23)OC(C)(C)C1OC(=O)CC(C)C (centres undefined) | inactive: 2.15% |
| CCOC(=O)c1c(C)oc2c1C(=O)c1ccccc1C2=O | inactive: -2.56% |
| O=C(CN1CC[n+]2c(-c3cccs3)csc21)c1ccc(Br)cc1 | active: 51.8% |
| Cc1ccc(C(CC(=O)NCc2ccco2)c2ccc(OC(C)C)cc2)cc1 (centres undefined) | inactive: 34.6% |
| Cc1ccccc1NC(=O)C1c2ccccc2Oc2ccccc21 | inactive: -10.3% |
| Cc1cccc(CN2CCN(C(c3ccccc3)c3ccc(Cl)cc3)CC2)c1 (centres undefined) | inactive: -3.56% |
| COC1CCCCC1Nc1ccc(C)c(C)c1 (centres undefined) | inactive: 2.37% |
| COCCn1c(/C=C/c2ccccc2)nc2ccccc21 | inactive: 5.06% |
| CC1CNCCN1S(=O)(=O)c1cccc2cnccc12 (centres undefined) | inactive: 5.22% |
| CCOC(=O)C1=C[C@]2(CC)CCCN3CCc4c(n1c1ccccc41)[C@@H]32 | inactive: -7.61% |
| CC(NC(=O)c1ccc(OC2CCN(Cc3ccccn3)CC2)cc1)c1ccccc1 (centres undefined) | inactive: -13.7% |
| COc1ccc(C)cc1S(=O)(=O)Nc1ccc(F)cc1 | inactive: 0.68% |
| O=C(OCCN1CCCC1)C1(c2ccccc2)CCCC1 | inactive: -13.1% |
| COC(=O)c1ccc(NC(=O)C23CCC(C)(C(=O)O2)C3(C)C)cc1 (centres undefined) | inactive: -0.21% |
| CC(C)=CCCC(C)CN1CCC(N2CCC(C(=O)N3CCCC3)CC2)CC1 (centres undefined) | inactive: -12.9% |
| C[C@]12CC[C@@H]3c4ccc(O)cc4CC[C@H]3[C@@H]1CCC2=O | inactive: -0.89% |
| OC(C#CCN1CCCC1)(c1ccccc1)c1cccnc1 (centres undefined) | inactive: 8.65% |
| CN=C1c2cc3cc(OC)ccc3n2CCN1C | inactive: -0.31% |

Source: PubChem BioAssay AID493035 (The Scripps Research Institute Molecular Screening Center, 2011)
